In patent publication US6248520, “Nucleic acid molecules encoding nuclear hormone receptor coactivators and uses thereof” (The Rockefeller University, dated 2001):

Biological target: human thyroid hormone receptor α (TRα-1), intact (human, UniProt P10827-2)
Test: GST pull-down, 1.5 µg immobilised GST, 35S-labelled TRα
Experimental: Proteins were synthesized and labeled with ^35S-methionine in a coupled transcription-translation system (TNT kit; Promega). 1.5 μg of immobilized GST-fusion protein and 2 μl of ^35S-labeled input proteins were used in GST pull-down assays. For coimmunoprecipitation (7), 2 μl of anti-FLAG M2 affinity gel (Kodak) and 3 μl of ^35S-labeled input proteins were used. For Far Western analyses, 500 ng of purified TR-TRAP complex was resolved by SDS-PAGE and transferred onto a nitrocellulose membrane. The blots were probed with in vitro translated, ^35S-labeled human TRα-1 or TRα-1 C-terminus (residues 122–410) in the presence and absence of 10^-7 M T_3.
To test which TRAPs interact with TRα, the entire complement of TRAPs (in the natural TR-TRAP complex) were initially probed by a Far Western analysis. Intact TRα and a C-terminal fragment (TRα-C, residues 122–410) containing the ligand-binding and AF-2 domains interacted with TRAP220, but not with the other TRAPs, in a ligand (T_3)-dependent manner (FIG. 7A). This interaction was confirmed by co-immunoprecipitation of in vitro translated, ^35S-labeled recombinant proteins. […] To analyze domains in TRAP220 involved in receptor interactions, regions containing the first LXXLL motif (TRAP220/1, residues 405–644) and the second LXXLL motif (TRAP220/2, residues 622–701) were expressed as GST fusion proteins. […]

B1: GST alone (other)
chain: not shown
B1: no binding.
